Measured values reported in the supplement of paper PMC3334620.
In all, about 33,000 sequences were measured (“E-score (-0.5 to 0.5)”: median about -0.032, highest 2% from about 0.36 on). Some of the results follow.

Each sequence was assayed against T1, Sko1 (UniProt Q02100) (assay: PBM E-score (8-mer binding enrichment) (E-score (-0.5 to 0.5)); higher = stronger / more preferred TF binding; most listed sequences are background and not binding sites). Settings: protein concentration: 200 nM; construct: GST-full length.
T1 sequence: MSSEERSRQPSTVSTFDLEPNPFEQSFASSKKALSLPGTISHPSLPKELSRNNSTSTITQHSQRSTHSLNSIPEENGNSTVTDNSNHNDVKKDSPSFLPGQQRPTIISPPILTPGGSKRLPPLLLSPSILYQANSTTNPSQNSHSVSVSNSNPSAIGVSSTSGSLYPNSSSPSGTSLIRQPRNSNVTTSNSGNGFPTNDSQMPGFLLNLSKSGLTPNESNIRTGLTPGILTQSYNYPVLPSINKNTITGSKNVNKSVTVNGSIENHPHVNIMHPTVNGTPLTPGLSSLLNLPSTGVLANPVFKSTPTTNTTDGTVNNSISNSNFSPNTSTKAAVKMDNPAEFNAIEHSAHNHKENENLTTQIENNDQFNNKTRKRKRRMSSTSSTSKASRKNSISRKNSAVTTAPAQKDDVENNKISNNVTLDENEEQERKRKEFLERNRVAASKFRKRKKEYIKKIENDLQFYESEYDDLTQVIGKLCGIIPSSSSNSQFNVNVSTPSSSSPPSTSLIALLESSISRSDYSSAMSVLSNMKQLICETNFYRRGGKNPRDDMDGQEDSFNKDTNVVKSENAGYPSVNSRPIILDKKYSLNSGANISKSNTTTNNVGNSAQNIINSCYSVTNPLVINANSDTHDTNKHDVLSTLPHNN
Experimental: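 Universal 'all 10-mer' protein binding microarrays (Agilent AMADID 015681) probed with GST-tagged S. cerevisiae TFs (full-length or DBD) made by in vitro transcription/translation (PURExpress), about 100-200 nM. Bound TF was detected with fluorescent anti-GST. Each ungapped 8-mer (which stands for itself and its reverse complement) is scored by the PBM enrichment score (E-score), a modified Wilcoxon-Mann-Whitney statistic from -0.5 to +0.5, computed with the Universal PBM Analysis Suite. Scale: above 0.35 generally sequence-specific binding.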
With TGACCGCA the “PBM E-score” value was -0.00327.
With CAGAATAC the “PBM E-score” value was 0.125.
For CCCCGCAC, the “PBM E-score” value was -0.133.
With AATGTAAC the “PBM E-score” value was 0.0785.
With AGCAAATC the “PBM E-score” value was 0.0775.
In the case of GGAGAGGA, the “PBM E-score” value is reported as -0.321.
GAGGGTTA was tested, and the “PBM E-score” value was -0.0259.
TAAATGTA was tested, and the “PBM E-score” value was 0.191.
With AGGGTCAC the “PBM E-score” value was -0.235.
For CCAATCCG, the “PBM E-score” value was -0.0702.
For CAAGCTTC, the “PBM E-score” value was -0.00273.
In the case of ACGGAACA, the “PBM E-score” value is reported as -0.0669.
With ACCGGCTG the “PBM E-score” value was -0.337.
CTTACTGC was tested, and the “PBM E-score” value was -0.111.
With GTTATCAA the “PBM E-score” value was 0.19.
For ACCGCGAA, the “PBM E-score” value was -0.0288.
For GCGACGTA, the “PBM E-score” value was 0.413.
With CATACCCC the “PBM E-score” value was -0.248.
For CCAATAAC, the “PBM E-score” value was 0.159.
In the case of GGTCATAC, the “PBM E-score” value is reported as 0.021.
With GCCCCTCA the “PBM E-score” value was -0.314.
AACGTGAA was tested, and the “PBM E-score” value was 0.14.
ATCAGCGA was tested, and the “PBM E-score” value was -0.0282.
With CTTATGGA the “PBM E-score” value was -0.255.
In the case of ATCGATCG, the “PBM E-score” value is reported as 0.104.
ATGATGGA was tested, and the “PBM E-score” value was 0.115.
In the case of AATAGCTC, the “PBM E-score” value is reported as -0.0596.
CGACACGC was tested, and the “PBM E-score” value was 0.109.
CAGGCTGG was tested, and the “PBM E-score” value was -0.236.
CTAATCCC was tested, and the “PBM E-score” value was -0.047.
With AAGCACAC the “PBM E-score” value was -0.0626.
With CTATCGGA the “PBM E-score” value was -0.139.
ATCCCGGC was tested, and the “PBM E-score” value was -0.229.
AAAGCGCG was tested, and the “PBM E-score” value was 0.0853.
AAGTCTGC was tested, and the “PBM E-score” value was -0.245.
For CTAGACCC, the “PBM E-score” value was -0.075.
For TGTTTCAA, the “PBM E-score” value was 0.2.
ATTTCCGA was tested, and the “PBM E-score” value was 0.0263.
For GCAATATA, the “PBM E-score” value was 0.102.
AACAAAGA was tested, and the “PBM E-score” value was 0.0544.
AAACAGCA was tested, and the “PBM E-score” value was 0.0279.
For CTGTGCGA, the “PBM E-score” value was -0.149.
CTGGAGTA was tested, and the “PBM E-score” value was 0.101.
For CGTGAGTC, the “PBM E-score” value was 0.0234.
With CAACACGC the “PBM E-score” value was 0.0514.
With GCTACGGA the “PBM E-score” value was -0.0597.
CGCCCATC was tested, and the “PBM E-score” value was -0.193.
In the case of AGACTTCG, the “PBM E-score” value is reported as 0.0209.
With ACCCCCAA the “PBM E-score” value was -0.174.
With ACGCCTAA the “PBM E-score” value was 0.0525.
In the case of AAACCTCC, the “PBM E-score” value is reported as -0.198.
With AGTTCTGC the “PBM E-score” value was -0.00688.
With CGCGTACG the “PBM E-score” value was 0.401.
With ACTAATAA the “PBM E-score” value was 0.297.
In the case of ACTCCGAT, the “PBM E-score” value is reported as -0.27.
ATGGGCTC was tested, and the “PBM E-score” value was -0.183.
For CGATCTAG, the “PBM E-score” value was -0.115.
With AGACCTTG the “PBM E-score” value was -0.208.
CTGCGCCA was tested, and the “PBM E-score” value was -0.0267.
For AACTTCGC, the “PBM E-score” value was 0.0815.
AGGTTGAG was tested, and the “PBM E-score” value was -0.143.
In the case of TGTCCGAA, the “PBM E-score” value is reported as -0.0382.
With ATAATGAC the “PBM E-score” value was 0.378.
For CTGTTTTC, the “PBM E-score” value was 0.0477.
AACCTCTA was tested, and the “PBM E-score” value was -0.112.
In the case of ACAGGAGC, the “PBM E-score” value is reported as -0.0772.
GTGCGGTA was tested, and the “PBM E-score” value was 0.00857.
For CCAGCAGG, the “PBM E-score” value was -0.217.
AGCTCAAT was tested, and the “PBM E-score” value was 0.016.
AGTAGAGC was tested, and the “PBM E-score” value was -0.192.
In the case of CTTACTCA, the “PBM E-score” value is reported as -0.0819.
With AACTGGAG the “PBM E-score” value was -0.258.
In the case of ATAGAAAC, the “PBM E-score” value is reported as 0.168.
For AACGTATC, the “PBM E-score” value was 0.353.
In the case of CCGGTACC, the “PBM E-score” value is reported as -0.0689.
For AGGTCTGC, the “PBM E-score” value was -0.317.
For GTAACGGA, the “PBM E-score” value was 0.191.
For AAGAGCTT, the “PBM E-score” value was -0.156.
GTAAGGAC was tested, and the “PBM E-score” value was -0.0853.
For ACAGGACG, the “PBM E-score” value was 0.0775.
GTTTAAAC was tested, and the “PBM E-score” value was 0.28.
With AATACTAC the “PBM E-score” value was 0.306.
ACGCTATC was tested, and the “PBM E-score” value was 0.238.
With AGTAGACG the “PBM E-score” value was 0.302.
In the case of GAAGTGTA, the “PBM E-score” value is reported as -0.125.
With CCTCCGTC the “PBM E-score” value was -0.221.
